Counter-ions that a name gives are not always drawn. The list shows a part of the results. Single values are uncertain, as repeats are few or missing.
What was measured:
[1] = tested on: OVCAR4; assay: log2 surviving fraction (library drug vs vehicle, or drug + carboplatin vs carboplatin alone; relative to plate median); ovarian cancer lines: OVCAR4 is platinum-sensitive and Ov4Carbo platinum-resistant; higher = more cell survival; settings: library drug concentration 10 µM, 7 days
[2] = tested on: Ov4Carbo; assay: as above; settings: library drug concentration 10 µM, 7 days

SMILES	log2 surviving fraction ([1]; carboplatin co-treatment 0 µM)	log2 surviving fraction ([1]; carboplatin co-treatment 5 µM)	log2 surviving fraction ([2]; carboplatin co-treatment 0 µM)	log2 surviving fraction ([2]; carboplatin co-treatment 5 µM)
CN1CCCCC1CCN1c2ccccc2Sc2ccc([S+](C)[O-])cc21 (configuration not stated) [Mesoridazine Besylate]	-0.471	-0.979	-1.46	-1.16
C[C@@H](O)[C@H]1C(=O)N2C(C(=O)O)=C(S[C@@H]3CN[C@H](C(=O)N(C)C)C3)[C@H](C)[C@H]12 [Meropenem]	1.79	2.18	0.565	-0.0569
C/C=C(\C)C(=O)N[C@@H](c1ccccc1)[C@@H](O)C(=O)O[C@H]1C[C@@]2(O)[C@@H](OC(=O)c3ccccc3)[C@@H]3[C@]4(OC(C)=O)CO[C@@H]4C[C@H](O)[C@@]3(C)C(=O)[C@H](OC(C)=O)C(=C1C)C2(C)C [Cephalomannine]	-7.47	-5.48	-6.59	-5.7
CN(C)c1cc(NC(=O)CNC(C)(C)C)c(O)c2c1C[C@H]1C[C@H]3[C@H](N(C)C)C(O)=C(C(N)=O)C(=O)[C@@]3(O)C(O)=C1C2=O [Tigecycline]	-0.0249	-0.0865	0.912	0.488
C=CC(=O)N1CCC[C@@H](n2nc(-c3ccc(Oc4ccccc4)cc3)c3c(N)ncnc32)C1	-3.05	-2.44	-3.55	-3.41
CN(C/C=C/c1ccccc1)Cc1cccc2ccccc12 [Naftifine HCl]	0.25	0.031	-0.308	-0.531
CCCCc1nc(Cl)c(CO)n1Cc1ccc(-c2ccccc2-c2nnn[nH]2)cc1 [Losartan potassium]	0.932	1.66	-9.59	-1.69
Oc1c(Br)cc(Br)c2cccnc12 [Broxyquinoline]	-1.81	-2.24	-0.977	-0.791
c1cc(CN2CCCNCCNCCCNCC2)ccc1CN1CCCNCCNCCCNCC1 [Plerixafor (AMD3100)]	0.203	-0.988	0.2	1.23
OC(CCN1CCCCC1)(c1ccccc1)c1ccccc1 [Pridinol Methanesulfonate]	1.12	-0.266	0.123	1.2
CCOC(=O)C1=C(C)NC(C)=C(C(=O)OC)C1c1cccc([N+](=O)[O-])c1 (configuration not stated) [Nitrendipine]	-0.63	-0.0158	0.31	-0.104
CO[C@H]1/C=C/O[C@@]2(C)Oc3c(C)c(O)c4c(O)c(c5c(nc6cc(C)ccn65)c4c3C2=O)NC(=O)/C(C)=C\C=C\[C@H](C)[C@H](O)[C@@H](C)[C@@H](O)[C@@H](C)[C@H](OC(C)=O)[C@@H]1C [Rifaximin (Xifaxan)]	0.162	-1.05	-0.101	-0.0841
Nc1ccn(C[C@@H](CO)OCP(=O)(O)O)c(=O)n1 [Cidofovir (Vistide)]	-0.883	0.738	1.06	0.374
O=C(O)c1cc(=O)c2c(OCC(O)COc3cccc4oc(C(=O)O)cc(=O)c34)cccc2o1 [Disodium Cromoglycate]	0.867	1.27	0.636	0.892
CN1C(=O)COc2c(C(=O)NC3CN4CCC3CC4)cc(Cl)cc21 (configuration not stated)	-0.355	-0.769	-0.505	0.553
CC(=O)O[C@]1(C(C)=O)CC[C@H]2[C@@H]3C=C(C)C4=CC(=O)CC[C@]4(C)[C@H]3CC[C@@]21C [Megestrol Acetate]	-0.0758	-6.43	-1.51	0.381
CN(C)[C@@H]1C(O)=C(C(N)=O)C(=O)[C@@]2(O)C(O)=C3C(=O)c4c(O)cccc4[C@@](C)(O)[C@H]3[C@H](O)[C@@H]12 [Oxytetracycline dihydrate]	0.8	0.775	0.659	1.81
O=C1O[C@H]([C@@H](O)CO)C(O)=C1O [Vitamin C (Ascorbic acid)]	1.02	0.428	0.364	0.0865
CC(C)c1c(CN(C)C(C)Cc2ccccc2)n(C)n(-c2ccccc2)c1=O (configuration not stated) [Famprofazone]	0.201	0.0261	0.386	-0.798
CC[C@@]1(O)C(=O)OCc2c1cc1n(c2=O)Cc2cc3ccccc3nc2-1 [Camptothecin]	-8.64	-7.29	-7.74	-6.98
CN1CCN(CCCN2c3ccccc3Sc3ccc(Cl)cc32)CC1 [Prochlorperazine Dimaleate]	-2.94	-0.776	-3.66	-2.99
CCCNCC(O)COc1ccccc1C(=O)CCc1ccccc1 (configuration not stated) [Propafenone (Rytmonorm)]	-0.415	-0.539	-0.668	-0.0783
CCOc1ccc2ccccc2c1C(=O)N[C@@H]1C(=O)N2[C@@H]1SC(C)(C)[C@@H]2C(=O)O [nafcillin sodium monohydrate]	0.297	0.947	0.0814	0.235

— the supplement of paper PMC8047034
